Results from the supplement of paper PMC11417369.
Some of the results follow.

system: PF3D7_0420300 AP2 domain 1 (GST-tagged); assay: gcPBM binding intensity (ln(normalized median fluorescence intensity)); higher = stronger DNA binding
How it was run: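 For binding intensity, the highest Masliner-normalised natural-log median intensity across replicate spots of either probe orientation was taken. Protein bound to the array was stained with Alexa488 anti-GST antibody and scanned at 488 nm. The protein, GST-tagged P. falciparum DNA-binding domains from E. coli at about 25 μg on average, had been applied for 1 h to an Agilent 4 × 180k array of primer-extended double-stranded 36-bp intergenic genomic probes and negative controls.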

First: CTTGGGAAGTATTCAGTGCAAAATATAAGCAGGTCA [GTGCAC_site9758]
Second: AAAAGAAATAAGGATACACACTATTGATAAAAGTAG [CACACA_site4309]
The “gcPBM binding intensity (ln)” value of the first is lower: 9.3 for the first, 9.59 for the second.

Going from “TATATTATCAAAATGGTGCAATAATTTCTATATTAT [GTGCAC_site9772]” to “TCGTGGGAAAATATTACACACATTTACTATAGTATC [CACACA_site5836]”, the “gcPBM binding intensity (ln)” value rises from 9.09 to 9.45.

Going from “TATTACAAATAATACCGTACACAAATGTTTTTTTAT [XGTACX_site7977]” to “ACTCTATACATCTAATGTACATGGAAAAAAAAATTC [XGTACX_site733]”, the “gcPBM binding intensity (ln)” value falls from 9.23 to 9.18.

First: ACATTGACATGTCGAAGTACTCAAGAAGCATACAAT [XGTACX_site3948]
Second: ATATAAATGATATGTACACACATTTATATTTATAAA [CACACA_site7600]
The “gcPBM binding intensity (ln)” value of the first is higher: 9.3 for the first, 9.28 for the second.

First: ATTAAAATGGTATGTGCGCACATAATATATATATGT [GTGCAC_site9572]
Second: TGGAAAATTATTAACACACACATATAAATATATATA [CACACA_site46]
The “gcPBM binding intensity (ln)” value of the first is lower: 9.48 for the first, 9.74 for the second.

First: GTAATAAGAATTATAGTGCAATGTAATACATTTATA
Second: TAATTTGAACGGTACAGTACTCTTTTTCTTTTTCAT [XGTACX_site5534]
The “gcPBM binding intensity (ln)” value of the first is lower: 9.23 for the first, 9.4 for the second.

First: ATATATTTTTTCAATTGTACGTTTTAATAATATTTA [XGTACX_site2130]
Second: AATACAACATAATGAAGTACTGTATTTTATATTACT [XGTACX_site4885]
The “gcPBM binding intensity (ln)” value of the first is higher: 9.5 for the first, 9.29 for the second.

Going from “ATGAAATCTTTAGAATATAGATGATGTTATTTAATT [XGTACX_negctrl_site511]” to “TTTCTTTGAATAAATACACACGAGAAATGAAAGTAG [CACACA_site8490]”, the “gcPBM binding intensity (ln)” value rises from 8.96 to 9.53.

First: CTTTTATTGCTCTATATGCACACCTTAATTCTTCAT [CACACA_site2195]
Second: GCAAAATTTCCTAAGGTGCTTTTATTTTACACCGTT [GTGCAC_site9923]
The “gcPBM binding intensity (ln)” value of the first is higher: 9.63 for the first, 9.28 for the second.

Going from “AATGGGTTAGCACATACACACCAATATATTATAGAT [CACACA_site7444]” to “AAAACCTAAAAGTCTTAAATTTTAAATATACCTACA [GTGCAC_negctrl_site492]”, the “gcPBM binding intensity (ln)” value falls from 9.51 to 9.09.

Going from “TTTATTACCATATTTTGTACACACATCTTTATCTCA [XGTACX_site6842]” to “ATAAAAAATAAATAAGGTACAGAACATTTATACATT [XGTACX_site1783]”, the “gcPBM binding intensity (ln)” value falls from 9.85 to 9.61.

First: AAATTAAACAATAAATGTACATATATATTTGTATAT [XGTACX_site1092]
Second: AACAAGGTATTAGGGTGTACTATATATATTTATATT [XGTACX_site7776]
The “gcPBM binding intensity (ln)” value of the first is lower: 9.2 for the first, 9.49 for the second.

First: TAAAGGAGCCTATGAACACACACATGTACTTATATT [CACACA_site9351]
Second: AATTGTTTGTTTGGGTGTACATGGTTCTATATAAAT [XGTACX_site7940]
The “gcPBM binding intensity (ln)” value of the first is higher: 9.7 for the first, 9.6 for the second.

Compared with “AATAAAATATAAACATTATATATATATATATATATA [GTGCAC_negctrl_site58]”, “ATTTTTTCTTTTTTTTTTCCGTTTTTTTGGACATTT [CACACA_negctrl_site1174]” is higher in “gcPBM binding intensity (ln)” value: 8.92 for the first, 9.45 for the second.

Going from “ATAAAAATAAAAGACGCATGTTCTTAAAATAAGAAC [TGCATGCA_site189]” to “ATATATATATATAATGCACACATTATGAATTATGTA [CACACA_site3384]”, the “gcPBM binding intensity (ln)” value falls from 9.33 to 9.25.

Going from “AAACAAAATGGTAACACACACATATATATATATATA [CACACA_site1939]” to “GTGTGATCTTTTGAAAGTACATTTTTTTTTTTTTTT [XGTACX_site6311]”, the “gcPBM binding intensity (ln)” value falls from 9.77 to 9.08.

First: AGGTCATACATAAAATGTACATATATATAAATATAT [XGTACX_site7147]
Second: TGAACACCCAAATACACACACTCAAAAAAAAAAAAG [CACACA_site5467]
The “gcPBM binding intensity (ln)” value of the first is lower: 9.21 for the first, 9.65 for the second.

Going from “ACAAGAATACACCACGCACACACACTAGAGAAAAAA [CACACA_site9276]” to “TAATAAAGTATTTTGCGTACTTATTTTATTCTTCTA [XGTACX_site2095]”, the “gcPBM binding intensity (ln)” value falls from 9.92 to 9.19.

First: GCCCCCAAATTATGTGTGCACTTTATATTCCTGAGA [GTGCAC_site9474]
Second: TGGCATATATATAAATGTACTTTCTTTCTATCTGTT [XGTACX_site8483]
The “gcPBM binding intensity (ln)” value of the first is higher: 9.69 for the first, 9.34 for the second.

Compared with “ATTGTGTGAACAAAATGTACATTTTCTCTACATTAA [XGTACX_site1333]”, “TTATATATATGTAATTGTACTTTTAATTTTTTTTTA [XGTACX_site4357]” is higher in “gcPBM binding intensity (ln)” value: 9.12 for the first, 9.19 for the second.

First: TAATTTTTTTTAAATACACACTGAAATGTGAATTTT [CACACA_site4476]
Second: TATTTTATAATAGGCACACATATAAAAATATATATA [CACACA_site4127]
The “gcPBM binding intensity (ln)” value of the first is lower: 8.96 for the first, 9.06 for the second.

Going from “TCATGTAACCATTCATGTACTCAAAAAAAAAAAAAA [XGTACX_site1027]” to “TTTTTTATGATTAACACACACACAAAAAAAAAAAAA [CACACA_site4130]”, the “gcPBM binding intensity (ln)” value rises from 8.76 to 9.52.

First: AAAAAAAAAACAAATACACACGCACCCAAAAAAAAA [CACACA_site8166]
Second: AAATGAAAGAACAGCACACATATATATTATATATAA [CACACA_site2002]
The “gcPBM binding intensity (ln)” value of the first is higher: 9.81 for the first, 9.63 for the second.

Going from “AACATATTTTTTCTTAAACACACACCGATATATATA [CACACA_site8919]” to “AATATATATTTCTAAGATAAAACCCAAGGATAAAAA [CACACA_negctrl_site735]”, the “gcPBM binding intensity (ln)” value falls from 9.64 to 9.3.

First: TCTGTAAATATGTATACACACATATCTGATCAATAT [CACACA_site5743]
Second: AATTAATTTATTTTATAAATAGTTAGATCGTCATAA [GTGCAC_negctrl_site660]
The “gcPBM binding intensity (ln)” value of the first is higher: 9.56 for the first, 8.87 for the second.

Compared with “ATTTCATTAAAGATTACATGCAATTCTATATTATTT [TGCATGCA_site260]”, “AACATAAATTACTTTTTACACACTAATATAAAATAC [CACACA_site8297]” is higher in “gcPBM binding intensity (ln)” value: 9.17 for the first, 9.42 for the second.

First: AATTGCTCGATATATGCACACAGTTTTGTTATTTTT [CACACA_site8465]
Second: AAAACACGCGGACACACACACACACGCCCACATATA [CACACA_site7105]
The “gcPBM binding intensity (ln)” value of the first is lower: 9.79 for the first, 10.4 for the second.

“ACTTTCAAGGATGTACGTACATATGTATTTTATAAC [XGTACX_site6714]” and “ATTTCTCTATAGTAATGTACAAAAAAAAGGAAAAAG [XGTACX_site2757]” are the same in “gcPBM binding intensity (ln)” value: 9.26 for the first, 9.26 for the second.

“ACATAAAATAAATATACACACATATGTATTTATTAT [CACACA_site5648]” was tested, and the “gcPBM binding intensity (ln)” value was 9.51.
